From the supplement of paper PMC12217912
The list shows a part of the results. The full chains were built here from the parent and the listed change. Inactive controls read about 0.05.

B1: TEV protease; numbered along this chain (parent)
chain: MGESLFKGPRDYNPISSSICHLTNESDGHTTSLYGIGFGPFIITNKHLFRRNNGTLVVQSLHGVFKVKDTTTLQQHLVDGRDMIIIRMPKDFPPFPQKLKFREPQREERICLVTTNFQTKSMSSMVSDTSCTFPSGDGIFWKHWIQTKDGQCGSPLVSTRDGFIVGIHSASNFTNTNNYFTSVPKNFMELLTNQEAQQWVSGWRLNADSVLWGGHKVFMVKPEEPFQPVKEATQL

Variants of: B1
Experiment: raw area under fraction-flipped curve 0-4 h after induction (AUC4h, not background-subtracted), DNA-recorder readout of cleavage of the substrate (dimensionless); higher = more cleavage of the substrate by the protease variant
Settings: temperature: 34 °C; time window: 0-4 h after rhamnose induction
Procedure: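 In vivo DNA recorder in E. coli TOP10(DE3) ΔrhaA at 34 °C. Each TEVp single-site mutant (parent TEVp 0) is paired with a single-site variant of the 7-mer TEVs (canonical ENLYFQ|S). The substrate sits between flexible linkers in a Bxb1-sfGFP-TEVs-SsrA fusion, so cleavage stabilises Bxb1 and speeds flipping of a recombination array, read by NGS. The value is the raw area under the fraction-flipped curve over 0-4 h after rhamnose induction (AUC4h), with ≥20 reads per time point. It is not background-subtracted; inactive controls average about 0.047.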
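Note: Bxb1 expression induced with 0.2% (w/v) L-rhamnose at OD600 near 0.5, cultures sampled hourly, flipped fraction per protease–substrate barcode pair counted by paired-end Illumina sequencing.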

Row | Variant | area with substrate ENLAFQS | area with substrate ENLDFQS | area with substrate ENLEFQS | area with substrate ENLFFQS | area with substrate ENLIFQS | area with substrate ENLKFQS | area with substrate ENLMFQS | area with substrate ENLNFQS | area with substrate ENLPFQS | area with substrate ENLQFQS | area with substrate ENLRFQS | area with substrate ENLSFQS | area with substrate ENLVFQS | area with substrate ENLGFQS | area with substrate ENLHFQS | area with substrate ENLLFQS | area with substrate ENLCFQS | area with substrate ENLWFQS | area with substrate ENLTFQS
1 | E103H | 0.0519 | 0.0794 | 0.0537 | 0.0834 | 0.066 | 0.0627 | 0.0606 | 0.0564 | 0.054 | 0.0791 | 0.0686 | 0.0574 | 0.0771 | – | – | – | – | – | –
2 | Q74R | 0.0064 | – | – | 0.0687 | – | 0.0715 | 0.0859 | 0.0556 | 0.0553 | 0.0728 | – | – | – | 0.0581 | 0.071 | 0.0803 | – | – | –
3 | Q74C | 0.0392 | 0.0677 | – | 0.0737 | – | 0.0689 | – | 0.0639 | – | 0.0718 | 0.0408 | 0.0506 | – | – | – | 0.0505 | 0.0655 | 0.0694 | –
4 | H62S | 0.0642 | 0.0621 | 0.0587 | 0.0839 | 0.0596 | 0.0712 | 0.0696 | 0.0599 | 0.0559 | 0.0499 | 0.0634 | – | 0.1 | – | 0.0752 | 0.0752 | – | – | 0.0676
5 | H62R | 0.0649 | 0.058 | 0.0551 | – | 0.0757 | 0.0616 | 0.0652 | 0.0531 | – | 0.0768 | – | 0.0656 | 0.0846 | – | 0.0841 | – | 0.0671 | – | –
6 | S60M | 0.0764 | 0.0618 | 0.0668 | 0.1 | 0.0778 | 0.0879 | 0.0585 | 0.0636 | 0.0584 | 0.0602 | 0.0562 | 0.0409 | 0.0866 | – | 0.066 | 0.118 | 0.072 | 0.0661 | –
7 | S60R | 0.0679 | 0.0571 | – | 0.0687 | 0.0611 | 0.0664 | 0.0521 | 0.0529 | 0.0495 | 0.0758 | – | 0.0564 | – | 0.0591 | 0.0828 | 0.0681 | – | 0.0655 | 0.0645
8 | S60P | 0.044 | 0.0421 | 0.0469 | 0.0551 | – | 0.0466 | – | 0.0404 | 0.0482 | – | 0.0532 | 0.0438 | – | – | 0.0604 | – | – | 0.0404 | 0.0326
9 | N52K | 0.0545 | – | – | 0.0628 | – | 0.0849 | – | – | 0.0791 | 0.0543 | – | – | 0.0552 | 0.0665 | 0.0677 | – | – | – | –
10 | T115E | 0.0696 | 0.069 | 0.0611 | 0.107 | 0.104 | 0.0517 | 0.0652 | 0.0509 | 0.0521 | – | 0.117 | – | – | – | 0.0599 | – | – | 0.063 | 0.0818
11 | R50E | 0.0605 | 0.0636 | 0.0755 | 0.076 | 0.0747 | 0.0717 | 0.071 | 0.0648 | 0.068 | – | 0.0554 | 0.0695 | – | 0.0639 | 0.0612 | 0.0675 | 0.0582 | 0.056 | –
12 | V113Q | 0.0571 | 0.0686 | 0.078 | 0.0707 | 0.0782 | 0.0598 | – | 0.0713 | 0.0444 | – | 0.0603 | – | – | – | 0.0536 | – | – | – | –
13 | I110S | 0.0382 | 0.0523 | – | 0.0603 | 0.0691 | – | 0.0541 | 0.0499 | 0.0555 | – | 0.0406 | 0.0612 | – | – | 0.0551 | 0.0677 | 0.0627 | 0.0477 | –
14 | L99P | 0.078 | 0.0603 | – | 0.0814 | – | 0.0675 | – | 0.0599 | 0.0491 | 0.0657 | – | 0.0653 | – | – | 0.0768 | 0.116 | 0.0727 | 0.0631 | 0.0725
15 | T70H | 0.0661 | 0.0675 | – | – | – | – | – | 0.066 | – | 0.056 | 0.0711 | 0.0517 | – | 0.064 | – | 0.054 | 0.0813 | – | 0.0661
16 | T70Q | 0.0603 | 0.0593 | 0.0597 | 0.0737 | – | 0.0663 | 0.0704 | 0.0664 | – | – | 0.0572 | 0.0395 | – | – | 0.0578 | 0.0542 | – | 0.0647 | –
17 | T70G | 0.0697 | 0.0624 | – | – | 0.0673 | – | – | 0.0584 | 0.0597 | – | – | – | 0.0573 | – | – | 0.0598 | – | 0.054 | –
18 | L56E | 0.0429 | 0.0642 | 0.0482 | 0.0544 | 0.0504 | 0.0478 | 0.0613 | 0.0522 | – | – | – | 0.0554 | – | 0.0406 | 0.0419 | 0.0507 | – | 0.0412 | –
19 | D79A | 0.0795 | 0.0746 | – | 0.088 | – | 0.0853 | – | – | 0.0701 | – | 0.0703 | – | – | – | 0.0709 | 0.0763 | – | 0.0636 | –
20 | G54S | 0.0527 | 0.0636 | 0.0589 | 0.062 | 0.0662 | 0.0648 | – | 0.0606 | 0.0749 | 0.0618 | – | 0.062 | – | 0.0516 | 0.0598 | 0.0586 | 0.0648 | 0.0351 | –
21 | T114W | 0.0382 | 0.0624 | 0.0594 | 0.0728 | – | 0.0835 | – | 0.0616 | 0.0657 | – | 0.0831 | 0.0642 | 0.0264 | 0.057 | 0.0552 | – | 0.0756 | – | –
22 | L112E | 0.0439 | 0.0419 | 0.0694 | 0.0717 | 0.048 | 0.0683 | – | 0.07 | 0.0516 | 0.0593 | 0.0612 | – | 0.063 | – | 0.0601 | – | 0.0657 | – | –
23 | P93A | 0.0785 | 0.0857 | – | 0.0778 | – | 0.06 | – | 0.0693 | – | 0.073 | – | 0.0615 | – | 0.0745 | – | 0.0746 | – | 0.0676 | 0.0742
24 | Q105Y | 0.0712 | 0.0602 | – | 0.0885 | – | 0.0792 | – | 0.0616 | 0.0623 | – | 0.0795 | 0.0666 | – | 0.0683 | 0.0687 | – | – | 0.0517 | –
25 | D91W | 0.0578 | 0.066 | – | – | 0.0767 | 0.0907 | – | 0.0682 | 0.0517 | 0.0554 | 0.0739 | 0.0694 | – | – | – | – | – | – | –
26 | H47M | 0.0411 | 0.056 | 0.028 | 0.061 | 0.055 | 0.0564 | 0.0547 | 0.0632 | 0.0607 | 0.056 | 0.0302 | 0.053 | – | – | 0.0636 | 0.063 | 0.0529 | – | 0.0587
27 | E108D | 0.0728 | 0.066 | 0.0575 | 0.0863 | 0.0935 | 0.0776 | – | 0.0593 | 0.0676 | 0.0682 | 0.0795 | 0.0664 | 0.0969 | – | 0.0647 | 0.0784 | – | 0.0554 | 0.0665
28 | V67C | 0.0647 | 0.0517 | 0.0648 | – | 0.105 | 0.0956 | – | – | – | – | – | 0.086 | – | – | 0.0552 | 0.0727 | – | – | –
